# Measurements taken from PubChem BioAssay AID624417 (National Center for Advancing Translational Sciences (NCATS), 2012).
# Out of some 410,000 compounds screened, about 6,400 (1.6%) were called active. Inconclusive means that the source gave no clear call. Such entries were picked first, then a sample of the others. Calls come from the whole dose curve; as a rule, active = well fitted inhibition curve with a large enough effect; inconclusive = small, poorly fitted or top-dose-only effect; inactive = no such curve, though single readings can be large or run the other way. Potencies of inconclusive entries are left out as doubtful fits.
# Molecular target: Glucagon-like peptide 1 receptor (Homo sapiens) (UniProt P43220)
# Chain of UniProt P43220 (P43220 whole entry, looked up): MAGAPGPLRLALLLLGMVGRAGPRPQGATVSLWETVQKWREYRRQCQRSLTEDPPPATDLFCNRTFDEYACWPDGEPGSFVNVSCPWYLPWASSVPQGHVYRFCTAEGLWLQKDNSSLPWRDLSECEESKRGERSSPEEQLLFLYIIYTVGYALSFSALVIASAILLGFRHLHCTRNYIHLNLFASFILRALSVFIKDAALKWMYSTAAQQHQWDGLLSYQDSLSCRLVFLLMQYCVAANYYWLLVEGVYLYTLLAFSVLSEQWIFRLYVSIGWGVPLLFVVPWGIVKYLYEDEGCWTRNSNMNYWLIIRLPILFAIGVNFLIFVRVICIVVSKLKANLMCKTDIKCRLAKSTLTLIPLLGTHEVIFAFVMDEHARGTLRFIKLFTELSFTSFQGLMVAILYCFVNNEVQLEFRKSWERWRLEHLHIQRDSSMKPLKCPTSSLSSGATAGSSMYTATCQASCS
# Assay: qHTS of GLP-1 Receptor Inverse Agonists (Inhibition Mode); note: nearly all actives have a fitted effect of over 55% in size
# Conditions: HEK293 GLP-1R CRE-luciferase, luminescence, 24 h, GLP-1R form is constitutively active; activity change, negative = inhibition: at 38.3 µM (top of the series) unless noted
# In short: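 HEK293 cells stably co-expressing a cAMP-responsive luciferase reporter and constitutively active GLP-1R were seeded, incubated 12 h, then exposed to compounds for 24 h at 37 C. Luminescence was read 12 min after detection reagent; inverse agonists lower signal.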
# % is set by controls: 0 for no effect and ±100 for the full control effect; potency is the fitted concentration of half-maximal effect; tags give direction and shape of the fitted curve.
Compound,"activity change, negative = inhibition",Potency
COc1ccc(C(=O)NC2CCCCCC2)cc1S(=O)(=O)Nc1ccc(Br)cc1,inactive: -4.28%,–
Cc1ccc(C)c(NC(=O)NNC(=O)CCc2ccccc2)c1,–,"inconclusive [inhibitor, full curve]"
COC(=O)c1ccc(Cn2c(SCc3cccc(C)c3)nc3ccncc32)cc1,inactive: 17.7%,–
Cc1cc(C)c(/C=C/c2onc(C)c2S(=O)(=O)N2CCC(C(=O)N3CCN(c4ccccc4)CC3)CC2)c(C)c1,inactive: 0.635%,–
Cc1ccc(NC(=O)c2sc3nc(C)nc(N4CCN(c5ccccn5)CC4)c3c2C)c(C)c1,–,active: 11.2 µM
COc1cc(-c2cc(NC(C)=O)c3ncc(-c4cc(OC)c(OC)c(OC)c4)n3c2)cc(OC)c1OC,–,"inconclusive [inhibitor, partial curve, poor fit]"
COc1ccc(S(=O)(=O)NCCSCc2cccc(C)c2)cc1Br,–,active: 11.2 µM
Cc1ccc(Nc2nc(COC(=O)C3CC3)cs2)cc1,–,"inconclusive [inhibitor, single point]"
O=[N+]([O-])c1cccc(CSc2nnc(Cc3ccccc3)n2-c2ccc(F)cc2)c1,–,"inconclusive [inhibitor, single point]"
Cc1nc2ccccn2c1C(=O)/C=C/c1ccc(F)cc1,–,"inconclusive [inhibitor, single point]"
CC(C)CC(=O)NC(=S)N1CCN(c2ccc([N+](=O)[O-])cc2Cl)CC1,–,"inconclusive [inhibitor, partial curve, poor fit]"
S=c1nc2ccccc2c2nc(-c3ccccc3)[nH]n12,–,"inconclusive [inhibitor, full curve, poor fit]"
CCNc1nc(NC(C)C)nc(NC(C)(C)C)n1,–,"inconclusive [inhibitor, single point]"
Cc1cc(NCCN2CCOCC2)n2nc(C)c(-c3ccccc3)c2n1,–,"inconclusive [inhibitor, partial curve]"
CCC(C)[C@H](NC(=O)NCc1cccc(OC)c1)C(=O)OC (some centres undefined),–,"inconclusive [inhibitor, single point]"
Cc1ccc(C)c(OCc2cc(C(=O)N3CCN(C4CCCCC4)CC3)no2)c1,–,"inconclusive [inhibitor, single point]"
COc1ccc(CN2CCCC(C(=O)Nc3cccc(-n4cnnn4)c3)C2)c(C)c1C (centres undefined),–,"inconclusive [inhibitor, single point]"
COC(=O)CNC(c1ccccc1)c1cc(Br)ccc1NC(=O)CCN1CCOCC1 (centres undefined),–,"inconclusive [inhibitor, single point]"
C/C(Cc1ccccc1)=N\NC(=O)c1cccnc1,inactive: -9.03%,–
CC(C)Sc1cc(N2CCCC2)nc(-c2ccccc2)n1,–,"inconclusive [inhibitor, single point]"

Compound,"activity change, negative = inhibition",Potency
CC[C@]12CCCN3CCc4c(n(c5ccccc45)C(=O)C1)[C@@H]32,–,"inconclusive [inhibitor, partial curve, poor fit]"
CCN(CC)c1ccc(NC(=O)CCS(=O)(=O)c2ccc(Br)cc2)c(C)c1,–,"inconclusive [inhibitor, partial curve, poor fit]"
COc1ccccc1NC(=O)Nc1nc(CC(=O)N2CCN(c3ccccc3)CC2)cs1,–,"inconclusive [inhibitor, partial curve, poor fit]"
Cc1ccc(CNC(=O)CCC(=O)N2CC(C)Sc3ccccc32)cc1 (centres undefined),–,"inconclusive [inhibitor, single point]"
CCCCn1c(CNC(=O)c2ccc(OC)cc2)nnc1SCC(=O)Nc1ccccc1,inactive: -13%,–
Cc1cc(C)c(C(=O)Cn2cnc3cc([N+](=O)[O-])ccc3c2=O)cc1C,–,"inconclusive [inhibitor, single point]"
N#C/C(=C\N1CCN(Cc2ccc3c(c2)OCO3)CC1)c1nc2ccccc2s1,–,"inconclusive [inhibitor, partial curve, poor fit]"
CC1(C(=O)Nc2ccc3nc[nH]c3c2)CCN1C(=O)c1ccccc1CCc1ccccc1 (centres undefined),inactive: -0.281%,–
O=C(CN1CCCCCC1)Nc1ccccc1Cl,–,"inconclusive [inhibitor, single point]"
CCOC(=O)c1cccc(NC(=O)CCCn2c(C)c3cnn(-c4ccccc4)c(=O)c3c2C)c1,–,"inconclusive [inhibitor, single point]"
C[C@@H]1CCC(=O)N(CC[C@H](Oc2ccccc2)c2ccccc2)CC1,–,"inconclusive [inhibitor, partial curve, poor fit]"
CC(C)C[C@H]1CN([C@@H](Cc2ccc(O)cc2)CN2CCC[C@@H]2CN2C(=S)NC[C@@H]2Cc2ccccc2)C(=S)N1CCc1ccccc1,–,"inconclusive [inhibitor, single point]"
O=C(NCc1ccc(Cl)c(Cl)c1)c1cc(C2CCCCN2C(=O)C2CCCCC2)on1 (centres undefined),–,"inconclusive [inhibitor, partial curve, poor fit]"
O=C1C(Sc2cccc(F)c2)=C[C@@]2(O)CC[C@@H](O)[C@]1(Sc1cccc(F)c1)[C@H]2O,inactive: -6.13%,–
CCN(CC)CCNc1nc(SC)nc2sc3c(c12)CCN(C)C3,–,"inconclusive [inhibitor, partial curve, poor fit]"
O=C(COc1ccccc1-c1ccccc1)NCc1cccc(Cl)c1,–,"inconclusive [inhibitor, single point]"
COc1ccc([C@@H]2CC=C(C(=O)O)[C@H](c3ccc(Br)cc3)N2S(=O)(=O)c2ccccc2C)cc1,–,"inconclusive [inhibitor, partial curve, poor fit]"
COc1ccc(CN2CCN(Cc3cc4ccccc4o3)CC2CCO)cc1C (centres undefined),–,"inconclusive [inhibitor, partial curve, poor fit]"
O=C(Nc1ccc(Cl)cc1)N1CCc2[nH]c3ccccc3c2C1,–,"inconclusive [inhibitor, partial curve, poor fit]"
